The record followed here is the antibiotic and cytotoxicity screens of Wong et al. (2023).

Assay [1] concerns HSkMC (human skeletal muscle cells). Kind of assay: cytotoxicity call (relative viability < 0.9). The settings on record: 10 µM.
Assay [2] has as its system HepG2. Kind of assay: cytotoxicity call (relative viability < 0.9). To be noted: 10 µM.
The subject of assay [3] is S. aureus RN4220. The assay is described as follows: growth inhibition call (relative growth <= 0.2). To be noted: 50 µM.

SMILES strings stand for the structures. This is one part of the list.

As for `CC(C)NC(=O)N(C)C[C@@H]1Oc2ccc(NS(=O)(=O)c3ccc(Cl)cc3)cc2CC(=O)N([C@H](C)CO)C[C@H]1C`, the cytotoxicity call in assay [1] and in assay [2] was “inactive” throughout. Further, the growth inhibition call in assay [3] was “inactive”.

On to `CC(C)NC(=O)[C@@H](C)n1ncn2cccc2c1=O`, for which the cytotoxicity call in assay [1] and in assay [2] was “inactive” in each case. Also, the growth inhibition call in assay [3] is “inactive”.

In the case of `Cc1noc(C)c1S(=O)(=O)Nc1ccc2c(c1)CC(=O)N([C@H](C)CO)C[C@H](C)[C@H](CN(C)S(C)(=O)=O)O2`, the cytotoxicity call in assay [1] and in assay [2] was “inactive” each time. In addition, the growth inhibition call in assay [3] is “inactive”.

Regarding `CN1CCCN=C1COC(=O)C(O)(c1ccccc1)C1CCCCC1.Cl` (stereo not given), the cytotoxicity call in assay [1] and in assay [2] was “inactive” each time. In assay [3], the growth inhibition call was “inactive”.

`C[C@@H]1CN([C@@H](C)CO)C(=O)Cc2cc(NC(=O)CCN3CCOCC3)ccc2O[C@H]1CN(C)Cc1ccc(C(=O)Nc2ccccc2N)cc1`: the cytotoxicity call in assay [1] and in assay [2] was “inactive” in each case. Further, the growth inhibition call in assay [3] is “inactive”.

Turning to `C[C@H]1CN([C@@H](C)CO)C(=O)Cc2cc(NC(=O)CCC(F)(F)F)ccc2O[C@H]1CN(C)C(=O)Nc1cccc2ccccc12`, the cytotoxicity call in assay [1] and in assay [2] was “inactive” throughout. Also, in assay [3], the growth inhibition call is “inactive”.

With `C[C@@H]1CN([C@@H](C)CO)C(=O)c2cc(NC(=O)Nc3ccc(F)cc3)ccc2O[C@@H]1CN(C)Cc1ccc(Oc2ccccc2)cc1`, the cytotoxicity call in assay [1] and in assay [2] was “active” in each case. In addition, in assay [3], the growth inhibition call is “inactive”.

For `COc1ccccc1CNC(=O)C[C@H]1C[C@H]2c3cc(NC(=O)C4CCOCC4)ccc3O[C@H]2[C@@H](CO)O1`, the cytotoxicity call in assay [1] and in assay [2] was “inactive” each time. Further, the growth inhibition call in assay [3] is “inactive”.

As to `COc1ccc(NC(=O)Nc2ccc3c(c2)CC(=O)N([C@H](C)CO)C[C@H](C)[C@@H](CN(C)Cc2ccc(C(F)(F)F)cc2)O3)cc1`, the cytotoxicity call in assay [1] and in assay [2] was “inactive” each time. For the same molecule, the growth inhibition call in assay [3] is “inactive”.

As to `C[C@@H]1CN([C@@H](C)CO)C(=O)Cc2cc(NS(C)(=O)=O)ccc2O[C@@H]1CN(C)C(=O)Nc1ccc(C(F)(F)F)cc1`, the cytotoxicity call in assay [1] and in assay [2] was “inactive” in each case. Also, the growth inhibition call in assay [3] is “inactive”.

Regarding `C[N+](C)(C)CCCC[C@@H]1NC(=O)[C@H]2C[C@@H](C(=O)NCCCCCNC(=O)CS)[C@@H](c3cccc(OCCO)c3)N2C1=O`, the cytotoxicity call in assay [1] and in assay [2] was “inactive” in each case. Further, in assay [3], the growth inhibition call is “inactive”.

As to `C[C@@H]1CN([C@@H](C)CO)C(=O)c2cc(NC(=O)Cc3ccccc3)ccc2O[C@@H](C)CCCCO[C@H]1CN(C)C(=O)Nc1cccc2ccccc12`, the cytotoxicity call in assay [1] and in assay [2] was “inactive” each time. Moreover, the growth inhibition call in assay [3] was “inactive”.

On to `COc1ccc(NC(=O)N(C)C[C@@H]2OCCCC[C@H](C)Oc3ccc(NC(=O)Nc4c(C)noc4C)cc3C(=O)N([C@H](C)CO)C[C@@H]2C)cc1`, for which the cytotoxicity call in assay [1] and in assay [2] was “inactive” in each case. In assay [3], the growth inhibition call was “inactive”.

Take `C[C@@H]1CN([C@@H](C)CO)S(=O)(=O)c2ccc(-c3ccc(C#N)cc3)cc2O[C@@H]1CN(C)C(=O)CN(C)C`: the cytotoxicity call in assay [1] and in assay [2] was “inactive” throughout. In addition, the growth inhibition call in assay [3] is “inactive”.

On to `CCCCCCCC(=O)N[C@H](CN1CCCC1)[C@H](O)c1ccc2c(c1)OCCO2`, for which the cytotoxicity call in assay [1] and in assay [2] was “inactive” each time. In addition, in assay [3], the growth inhibition call is “inactive”.

Take `C[C@H]1CN([C@@H](C)CO)C(=O)c2c(c3ccccc3n2C)-c2ccccc2CO[C@H]1CN(C)C(=O)Nc1ccc(-c2ccccc2)cc1`: in assay [1], the cytotoxicity call was “inactive”. Besides, in assay [2], the cytotoxicity call was “active”. Further, in assay [3], the growth inhibition call was “inactive”.

As for `CNCC(O)c1cccc(O)c1.Cl` (stereo not given), the cytotoxicity call in assay [1] and in assay [2] was “inactive” throughout. For the same molecule, the growth inhibition call in assay [3] was “inactive”.

Regarding `CC(C)NC(=O)N(C)C[C@@H]1Oc2ccc(NC(=O)CCCN(C)C)cc2CC(=O)N([C@H](C)CO)C[C@@H]1C`, the cytotoxicity call in assay [1] and in assay [2] was “inactive” throughout. The growth inhibition call in assay [3] was “inactive”.

`C[C@H]1CN([C@@H](C)CO)C(=O)c2cccc(NS(=O)(=O)c3cn(C)cn3)c2O[C@H]1CN(C)S(=O)(=O)c1cn(C)cn1`: the cytotoxicity call in assay [1] and in assay [2] was “inactive” each time. Besides, the growth inhibition call in assay [3] is “inactive”.

As to `C[C@@H]1CCCCO[C@@H](CN(C)Cc2ccc(Cl)c(Cl)c2)[C@@H](C)CN([C@H](C)CO)C(=O)c2cc(NS(=O)(=O)c3cn(C)cn3)ccc2O1`, the cytotoxicity call in assay [1] and in assay [2] was “inactive” each time. Besides, the growth inhibition call in assay [3] was “inactive”.

For the molecule `COc1ccc(S(=O)(=O)Nc2ccc3c(c2)C(=O)N([C@@H](C)CO)C[C@H](C)[C@H](CN(C)C(=O)c2ccccc2)OCCCC[C@@H](C)O3)cc1`, the cytotoxicity call in assay [1] and in assay [2] was “inactive” in each case. The growth inhibition call in assay [3] is “inactive”.

Consider `C[C@H]1CCCCO[C@H](CN(C)S(=O)(=O)c2cccs2)[C@@H](C)CN([C@@H](C)CO)C(=O)c2cc(NC(=O)c3ccccc3)ccc2O1`, for which the cytotoxicity call in assay [1] and in assay [2] was “inactive” throughout. The growth inhibition call in assay [3] is “inactive”.

On to `O=C(O)c1csc2c1CCCCC2`, for which the cytotoxicity call in assay [1] and in assay [2] was “inactive” throughout. In assay [3], the growth inhibition call is “inactive”.

Take `O=C(C[C@H]1CC[C@@H]2[C@H](COC[C@H](O)CN2S(=O)(=O)c2ccc(Oc3ccccc3)cc2)O1)NCCN1CCCCC1`: the cytotoxicity call in assay [1] and in assay [2] was “inactive” throughout. For the same molecule, the growth inhibition call in assay [3] is “inactive”.

As to `O=C(CCCCCCC(=O)N/N=C/c1cccc(B(O)O)c1)NO`, the cytotoxicity call in assay [1] and in assay [2] was “inactive” each time. In assay [3], the growth inhibition call was “inactive”.

Regarding `Cc1ccoc1C(=O)NCCN`, the cytotoxicity call in assay [1] and in assay [2] was “inactive” in each case. Moreover, the growth inhibition call in assay [3] is “inactive”.

`C[C@@H]1CN([C@H](C)CO)C(=O)c2cc(C#CC3(O)CCCC3)cnc2O[C@@H]1CN(C)C(=O)C1CCOCC1`: the cytotoxicity call in assay [1] and in assay [2] was “inactive” in each case. Also, the growth inhibition call in assay [3] was “inactive”.

`O=C(CCCCCNC(=O)OC[C@]12N=C3SCc4ccccc4CN3[C@H](c3ccccc3O1)[C@H]2COC(=O)c1ccccc1)NO`: the cytotoxicity call in assay [1] and in assay [2] was “inactive” throughout. For the same molecule, the growth inhibition call in assay [3] is “inactive”.

As for `C[C@H](CO)N1C[C@H](C)[C@@H](CN(C)C(=O)Nc2ccc3c(c2)OCO3)Oc2ccc(NC(=O)Nc3ccc(C(F)(F)F)cc3)cc2C1=O`, the cytotoxicity call in assay [1] and in assay [2] was “inactive” in each case. Also, the growth inhibition call in assay [3] is “inactive”.

Turning to `CC(C)CC#Cc1ccc2c(c1)O[C@@H](CN(C)C(=O)NC1CCCC1)[C@@H](C)CN([C@@H](C)CO)S2(=O)=O`, the cytotoxicity call in assay [1] and in assay [2] was “inactive” throughout. Also, in assay [3], the growth inhibition call is “inactive”.

For the molecule `C[C@@H](NC(=O)COc1ccccc1)C(=O)O`, the cytotoxicity call in assay [1] and in assay [2] was “inactive” throughout. Further, in assay [3], the growth inhibition call is “inactive”.

For `CC(=O)OC1CC23CC24CCC(OC2OCC(O)C(O)C2O)C(C)(C)C4CCC3C2(C)CC3OC4(CC(C)C3C12C)OC(O)C1(C)OC41` (stereo not given), the cytotoxicity call in assay [1] and in assay [2] was “inactive” each time. Further, the growth inhibition call in assay [3] was “inactive”.

Consider `O=C(Nc1ccc(C(F)(F)F)cc1)Nc1cccc(Cl)c1`, for which the cytotoxicity call in assay [1] and in assay [2] was “active” in each case. Further, the growth inhibition call in assay [3] is “inactive”.

In the case of `C[C@H]1CCCCO[C@@H](CN(C)Cc2ccc3c(c2)OCO3)[C@@H](C)CN([C@@H](C)CO)C(=O)c2cc(NC(=O)Nc3ccc(F)cc3)ccc2O1`, the cytotoxicity call in assay [1] and in assay [2] was “inactive” in each case. Moreover, the growth inhibition call in assay [3] is “inactive”.

For the molecule `Cc1noc(C)c1S(=O)(=O)Nc1cccc2c1O[C@H](CN(C)C(=O)NC1CCCCC1)[C@H](C)CN([C@@H](C)CO)C2=O`, the cytotoxicity call in assay [1] and in assay [2] was “inactive” each time. Moreover, in assay [3], the growth inhibition call was “inactive”.

For `C[C@H](CO)N1C[C@H](C)[C@@H](CN(C)Cc2ccc(Cl)c(Cl)c2)Oc2ccc(NC(=O)C3CCCCC3)cc2CC1=O`, the cytotoxicity call in assay [1] and in assay [2] was “inactive” throughout. Moreover, the growth inhibition call in assay [3] was “inactive”.

Take `C[C@@H]1CN([C@H](C)CO)C(=O)CCCn2nncc2CO[C@H]1CN(C)S(=O)(=O)c1ccc(C#N)cc1`: the cytotoxicity call in assay [1] and in assay [2] was “inactive” in each case. Moreover, the growth inhibition call in assay [3] was “inactive”.

As to `C[N+](C)(C)CCCCNC(=O)[C@H]1C[C@H]2C(=O)N[C@@H](Cc3ccccc3)C(=O)N2[C@H]1c1cccc(OCCO)c1`, the cytotoxicity call in assay [1] and in assay [2] was “inactive” each time. Besides, the growth inhibition call in assay [3] was “inactive”.

Regarding `NC(=O)NC(CCC(=O)O)C(=O)O` (stereo not given), the cytotoxicity call in assay [1] and in assay [2] was “inactive” throughout. The growth inhibition call in assay [3] was “inactive”.

With `C[C@H](CO)N1C[C@H](C)[C@@H](CN(C)Cc2ccc(Cl)c(Cl)c2)OCCCC[C@H](C)Oc2ccc(NC(=O)C3CCCCC3)cc2C1=O`, the cytotoxicity call in assay [1] and in assay [2] was “inactive” each time. Further, the growth inhibition call in assay [3] was “inactive”.
